Inconclusive results and toxic doses are left out. A number of entries come with more than one value. They are shown here; other results are not. There may be further records. Results that share an entry differ, and nothing given here explains why; dose, time, organism, isomer or construct need not be as stated for each record.
System: nude mice, LOX melanoma ip, survival T/C
Test: NCI In Vivo Anticancer Drug Screen. Data for tumor model Human Amelanotic Melanoma (LOX) (intraperitoneal) in NU/NU BALB/C (nude) mice
Conditions: endpoint: median survival time, schedule: Q04DX003 (ip), higher = longer survival
Experimental: The antitumor activity of compounds was measured in mice bearing transplantable tumors. Survival or tumor size were measured and the results are expressed as the measurement made in the treated group (T) divided by the measurement made in the vehicle treated control group (C). The tumor model used in this assay is Human Amelanotic Melanoma (LOX) (intraperitoneal) in NU/NU BALB/C (nude) mice

N[C@@H](Cc1ccc(N(CCCl)CCCl)cc1)C(=O)O
T/C (dose: 4.0 mg/kg/injection, vehicle: saline): 107 % of control and 181 % of control

O=C(O)CCCc1ccc(N(CCCl)CCCl)cc1
T/C (dose: 18.0 mg/kg/injection, vehicle: Klucel (hydroxypropylcellulose) (HPC)): 107 % of control, 159 % of control, 179 % of control

Cc1c(N)nc([C@H](CC(N)=O)NC[C@H](N)C(N)=O)nc1C(=O)N[C@H](C(=O)N[C@H](C)[C@@H](O)[C@H](C)C(=O)N[C@H](C(=O)NCCc1nc(-c2nc(C(=O)NCCC[S+](C)C)cs2)cs1)[C@@H](C)O)C(OC1OC(CO)C(O)C(O)C1OC1OC(CO)C(O)C(OC(N)=O)C1O)c1cnc[nH]1 (stereo not given in full)
T/C (dose: 16.0 mg/kg/injection, vehicle: saline): 107 % of control and 167 % of control

CN(C)/N=N/c1nc[nH]c1C(N)=O
T/C (dose: 150.0 mg/kg/injection, vehicle: Klucel (hydroxypropylcellulose) (HPC)): 112 % of control and 160 % of control
T/C (dose: 225.0 mg/kg/injection, vehicle: Klucel (hydroxypropylcellulose) (HPC)): 111 % of control and 171 % of control

Reference: PubChem BioAssay AID280 (DTP/NCI, 2004)
